Measured values reported in patent publication US20090022714A1, “Combination methods of inhibiting tumor growth with a vascular endothelial growth factor receptor antagonist” (ImClone Systems, Inc., priority 2001, published 2009).

Tests used:
Flk-1 = molecular target: T1, Flk-1 (Mus musculus, UniProt P35918); test: Cross-reactivity with Flk-1-AP in epitope-mapping assay; type: binding
T1 construct: The soluble fusion proteins, KDR (VEGFR-2)-AP, its immunoglobulin (Ig) domain-deletion variants, and Flk-1-AP, were expressed in stably transfected NIH 3T3; made in house; host or cells: stably transfected NIH 3T3 cells; purified from culture supernatant on immobilized anti-AP antibody
Protocol: (§1) The production of KDR (VEGFR-2) extracellular Ig-like domain deletion variants has been previously described (Lu et al. (2000)). In an epitope-mapping assay, full length KDR (VEGFR-2)-AP, Ap fusions of two KDR (VEGFR-2) Ig-domain deletion variants, and Flk-1-AP were first immobilized onto a 96-well plate (Nunc) using a rabbit anti-AP antibody (DAKO-immunoglobulins, Glostrup, Denmark) as the capture reagent. The plate was then incubated with various anti-KDR (VEGFR-2) Fab proteins at RT for 1 h, followed by incubation with a rabbit anti-human Fab antibody-HRP conjugate. The plate was washed and developed as described above.

KDR (VEGFR-2) = KDR (VEGFR-2) (Homo sapiens, UniProt P35968); test: BIAcore analysis of soluble Fab; type: binding; parameters: the cDNA for KDR (VEGFR-2) extracellular domain is fused in-frame with the cDNA for human placental AP; made in house; host or cells: stably transfected NIH 3T3 cells, purified from supernatant on anti-AP antibody; details: mean±SE
Protocol: The binding kinetics of soluble Fab proteins to KDR (VEGFR-2) were measured by surface plasmon resonance using a BIAcore biosensor (Pharmacia Biosensor). KDR (VEGFR-2)-AP fusion protein was immobilized onto a sensor chip and soluble Fab proteins were injected at concentrations ranging from 1.5 nM to 100 nM. Sensorgrams were obtained at each concentration and were evaluated using a program, BIA Evaluation 2.0, to determine the rate constants kon and koff Kd was calculated from the ratio of rate constants koff/kon.

[1] = test system: KDR (VEGFR-2), KDR (VEGFR-2)(1-3), KDR (VEGFR-2)(3); test: Binding epitope mapping with KDR Ig-domain deletion variants; parameters: species or system human
Protocol: as §1

KDR (VEGFR-2), sequence (P35968 20-764 limits assumed): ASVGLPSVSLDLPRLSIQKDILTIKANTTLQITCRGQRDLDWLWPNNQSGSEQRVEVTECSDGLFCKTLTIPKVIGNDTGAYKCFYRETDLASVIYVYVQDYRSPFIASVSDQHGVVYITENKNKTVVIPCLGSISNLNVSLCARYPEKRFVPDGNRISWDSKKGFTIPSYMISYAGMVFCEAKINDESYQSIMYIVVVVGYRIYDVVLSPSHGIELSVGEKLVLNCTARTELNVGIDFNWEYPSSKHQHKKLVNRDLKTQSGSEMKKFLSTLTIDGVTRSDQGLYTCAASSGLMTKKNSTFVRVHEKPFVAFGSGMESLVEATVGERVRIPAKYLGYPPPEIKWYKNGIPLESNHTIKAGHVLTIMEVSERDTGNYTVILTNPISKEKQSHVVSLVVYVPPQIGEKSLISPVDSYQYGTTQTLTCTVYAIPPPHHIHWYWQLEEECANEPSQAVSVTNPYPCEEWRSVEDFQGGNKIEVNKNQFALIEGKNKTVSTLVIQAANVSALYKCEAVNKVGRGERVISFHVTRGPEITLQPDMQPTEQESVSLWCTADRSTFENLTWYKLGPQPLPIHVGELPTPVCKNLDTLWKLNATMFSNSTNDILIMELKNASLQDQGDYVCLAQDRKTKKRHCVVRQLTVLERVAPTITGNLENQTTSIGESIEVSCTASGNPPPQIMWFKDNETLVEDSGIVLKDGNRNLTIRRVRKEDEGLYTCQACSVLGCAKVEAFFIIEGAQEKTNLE
T1 sequence (P35918 20-762 limits assumed): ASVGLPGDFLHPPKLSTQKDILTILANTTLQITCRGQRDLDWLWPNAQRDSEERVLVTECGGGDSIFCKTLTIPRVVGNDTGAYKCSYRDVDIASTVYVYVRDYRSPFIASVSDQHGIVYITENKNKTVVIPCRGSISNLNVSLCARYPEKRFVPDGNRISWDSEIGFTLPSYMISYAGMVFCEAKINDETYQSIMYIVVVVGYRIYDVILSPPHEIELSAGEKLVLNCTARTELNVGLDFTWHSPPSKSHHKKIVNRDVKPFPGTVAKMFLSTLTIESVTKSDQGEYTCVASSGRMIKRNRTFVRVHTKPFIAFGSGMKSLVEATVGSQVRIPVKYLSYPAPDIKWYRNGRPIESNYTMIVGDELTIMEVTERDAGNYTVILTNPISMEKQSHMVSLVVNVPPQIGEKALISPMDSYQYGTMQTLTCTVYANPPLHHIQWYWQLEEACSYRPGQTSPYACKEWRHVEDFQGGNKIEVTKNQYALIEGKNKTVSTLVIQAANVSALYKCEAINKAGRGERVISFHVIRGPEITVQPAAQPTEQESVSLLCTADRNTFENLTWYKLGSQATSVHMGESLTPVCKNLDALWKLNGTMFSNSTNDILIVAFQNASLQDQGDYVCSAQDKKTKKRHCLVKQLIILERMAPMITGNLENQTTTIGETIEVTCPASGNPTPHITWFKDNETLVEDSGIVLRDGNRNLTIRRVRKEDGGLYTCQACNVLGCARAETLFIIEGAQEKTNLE

B1: D1F7: human anti-KDR (VEGFR-2) VEGF-blocking Fab clone, cross-reactive with Flk-1 (antibody, V domains shown)
VH: EVQLVQSGAEVKKPGASVKVSCKASGGTFSSYAISWVRQAPGQGLEWMGGIIPIFGTANYAQKFQGRVTFTADKSTSTAYMELRSLRSDDTAVYYCARGYDYYDSSGVASPFDYWGQGTLVTVSS
VL: QSVLTQPPSASGTPGQRVTISCSGSTSNIGTNTANWFQQLPGTAPKLLIHNNNQRPSGVPDRFSGSKSGTSASLAISGLQSEDEADYYCAAWDDSLNGHWVFGGGTKLTVL
Question: How did the “cross-reactivity with Flk-1” value (Flk-1) turn out when B1 was run?
Answer: Its value is “cross-reacts with Flk-1”.

Question: What about the koff (KDR (VEGFR-2)) of the same molecule?
Answer: The koff was 18.7 ± 2.12 10^−4 S^−1.

Question: And the kon (KDR (VEGFR-2))?
Answer: The kon was 4.14 ± 1.21 10^4 M^−1S^−1.

Question: And the “location of binding epitope(s)” value [1]?
Answer: Its value is “broader binding epitope(s) within KDR (VEGFR-2) Ig domains 1 to 3”.
